Values joined by “and” are separate entries in the source; they are usually repeats but may differ in a detail not shown here. Identical values can stand only once. The campaign covered roughly 340,000 compounds. About 12,000 (3.5%) were called active. Inconclusive means that the source gave no clear call. Such entries were picked first, then a sample of the others. Calls come from the whole dose curve; as a rule, active = well fitted inhibition curve with a large enough effect; inconclusive = small, poorly fitted or top-dose-only effect, or another doubt; inactive = no such curve, though single readings can be large or run the other way. Potencies beside an inconclusive call are fits to weak or partial responses and may not hold up.
Experiment: qHTS Assay for Inhibitors of Hepatitis C Virus (HCV)
Conditions: Huh7.5.1 HCVcc-Cre (HCVcc is cell-culture hepatitis C virus) infection, luciferase reporter, 44 h; series mostly up to 41.8 µM
Outline: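 Cells (1,000/well) were plated 4 h before compound, then infected with HCVcc-Cre virus (~0.5 moi). After 44 h further culture, infection was read as luciferase luminescence following a 15 min substrate incubation at room temperature.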
Potency is the fitted concentration of half-maximal effect; tags give direction and shape of the fitted curve.

Structure (SMILES) | Potency
O=C(c1ccco1)N1CCC(c2ccccc2)C1 (centres undefined) | inactive
COCCNC(=O)c1ccccc1NC(=O)CSc1ccc(C)cc1 | inactive
O=C(NCC(c1ccco1)N1CCc2ccccc21)c1ccccc1F (centres undefined) | inconclusive: 31.6 µM [inhibitor, single point]
O=C(Nc1nnc(-c2ccccc2F)s1)C1CCCO1 (centres undefined) | inactive
CC(C)Cn1c(N)c(C(=O)CSc2nncs2)c(=O)n(C)c1=O | inactive
CCOC(=O)Cc1c(C)nc2c(-c3ccc(Cl)cc3)c(C)nn2c1C | inconclusive: 3.16 µM [inhibitor, single point]
COc1cccc(N2CCN(C(=O)C3CCCN(c4ncnc5c4nc4n5CCCCC4)C3)CC2)c1 (centres undefined) | inconclusive: 22.4 µM [inhibitor, single point]
CC(=O)c1cccc(NC(=O)c2ccc(CN3CCc4ccccc4C3)cc2)c1 | active: 11.2 µM
CC(=O)c1cccc(S(=O)(=O)N2CCCC(c3nc4c(nnn4Cc4cccc(Cl)c4)c(=O)[nH]3)C2)c1 (centres undefined) | inconclusive: 5.62 µM [inhibitor, single point]
COc1ccc2nc(SCC(=O)N3CC(=O)Nc4ccccc43)c(C#N)cc2c1 | inconclusive: 20 µM [inhibitor, partial curve, poor fit]
COc1ccc2cc3cc(C(=O)Nc4cc(OC)c(OC)c(OC)c4)oc3nc2c1 | inconclusive: 2.51 µM [inhibitor, full curve]
Cc1oc(-c2cccc(Cl)c2)nc1CN1CCC(C(=O)NCc2cccnc2)CC1 | inconclusive: 31.6 µM [inhibitor, single point]
CC(C)NC(=O)NC(=O)COC(=O)c1c2c(nc3ccccc13)CCC2 | active: 4.47 µM
O=C(NCc1ccncc1)c1ccc(Oc2ccccc2)cc1 | inconclusive: 31.6 µM [inhibitor, single point]
CC(C)c1ccc(/C=C/C(=O)N2CCOCC2)cc1 | inactive
N#CC(C(=O)c1ccco1)c1ccccn1 (centres undefined) | inactive
Cc1cc2oc(=O)cc(-c3ccccc3)c2c(C)c1-c1ccc(N(C)C)cc1 | inconclusive: 5.01 µM [inhibitor, partial curve]
CCc1c(C(=O)N/N=C/c2ccc(OCc3ccc(F)cc3)c(OC)c2)nnn1-c1nonc1N | inconclusive: 1.26 µM [inhibitor, full curve]
Cc1ccc(CN2CC(=O)N3[C@H]4c5ccccc5OC[C@@H]4[C@H](c4ccccc4)[C@]3(C)C2=O)cc1 | inconclusive: 31.6 µM [inhibitor, single point]
Cc1nnc(SCC(=O)N2CCc3ccccc32)s1 | inactive
O=C(c1cc2nc(-c3cccs3)cc(C(F)(F)Cl)n2n1)N1CCCc2ccccc21 | active: 7.08 µM
CCCn1c2c(c(O)c(C(=O)NCCCN(CC)CC)c1=O)CCCC2 | inconclusive: 11.2 µM [inhibitor, single point]
COC(=O)c1cc(C)cc(=O)o1 | inactive
COc1cc(-c2nnc(-c3ccc(N4CCOCC4)cc3)o2)cc(OC)c1OC | inconclusive: 12.6 µM [inhibitor, partial curve]
CCCc1cc(=O)[nH]c(SCC(=O)Nc2oc(C)c3c(C)n[nH]c(=O)c23)n1 | inactive

Structure (SMILES) | Potency
Cc1ccc(S(=O)(=O)NC(C)(C)CN2CCC(Cc3ccccc3)CC2)cc1 | inconclusive: 22.4 µM [inhibitor, single point]
Cc1ccccc1C(=O)OCCN1CCOCC1 | inactive
Cc1cc(OCC(=O)OCC(=O)N2c3ccccc3NC(=O)C2(C)C)ccc1Cl | inactive
CCN1CCN(CCCN(Cc2ccco2)C(=S)Nc2cccc(Cl)c2C)CC1 | inconclusive: 0.562 µM [inhibitor, full curve, poor fit]
O=C(NCc1ccc(Cl)cc1)c1ccncc1 | inactive
CC(/C=N/NC(=O)CN1CCN(Cc2ccc(Cl)cc2)CC1)=C\c1ccco1 | inconclusive: 6.31 µM [inhibitor, partial curve]
Cc1ccc(C(=O)Nc2ccccc2-c2ccccc2)cc1S(=O)(=O)Nc1ccccc1 | inconclusive: 31.6 µM [inhibitor, single point]
NC(=O)Nc1ccc(C(=O)N2CCN(S(=O)(=O)Cc3ccccc3)CC2)cc1 | inactive
OC(COc1ccc2ccccc2c1)CN1CCCC1 (centres undefined) | inconclusive: 15.8 µM [inhibitor, single point]
COc1ccc(OC)c(S(=O)(=O)Nc2cccc(-c3ccc(N4CCCCCC4)nn3)c2)c1 | inconclusive: 31.6 µM [inhibitor, single point]
CN(c1ccccc1)c1nc(-n2ccnc2)nc(-n2ccnc2)n1 | inconclusive: 10 µM [inhibitor, partial curve]
Cc1nn(Cc2ccccc2)c(Cl)c1C(=O)O | inactive
Cc1ccccc1C(=O)N1CCC(C(=O)Nc2ccc(C(C)C)cc2)CC1 | inconclusive: 22.4 µM [inhibitor, single point]
Cc1cccc(-c2nc(=S)c3c(o2)CCCC3)c1 | inactive
O=C1Nc2ccccc2C1=Nc1ccc(Cl)cc1 | inactive
O=C(Cc1ccc(O)cc1)N/N=C/c1cccs1 | inactive
CN(C)CCN(Cc1ccco1)c1ccccn1 | inactive
COC(=O)CSc1nnc(CCc2ccccc2)n1C | inactive
COc1ccc(C2CC(=O)c3cnc(NC(=O)c4ccccc4OC)nc3C2)c(OC)c1 (centres undefined) | inconclusive: 10 µM [inhibitor, partial curve]
Cn1cc(C(=O)C(=O)NC2CCCCC2)c2ccccc21 | inconclusive: 31.6 µM [inhibitor, single point]
CN(c1cccc(NC(=O)c2ccc(C(C)(C)C)cc2)c1)S(C)(=O)=O | inconclusive: 22.4 µM [inhibitor, single point]
CC(=O)Nc1ccccc1NC(=O)c1ccc(C)cc1C | inactive
CCCc1cc(=O)[nH]c(SCC(=O)c2cc(C)n(CCC)c2C)n1 | inactive
COc1ccc(-c2nnc(Nc3nc4c(OC)cccc4s3)o2)cc1 | inconclusive: 8.91 µM [inhibitor, partial curve]
CC(OC(=O)c1cnccn1)C(=O)c1ccccc1 (centres undefined) | inactive

Structure (SMILES) | Potency
CCOC(=O)C1=C(C)NC2=C(C(=O)CC(c3cccs3)C2)C1c1cccs1 (centres undefined) | inconclusive: 31.6 µM [inhibitor, single point]
COC(=O)[C@@]12CCCN1[C@H](c1ccc(-c3ccccc3)cc1)[C@@H]1C(=O)N(C)C(=O)[C@@H]12 | inactive
Cc1ccc2c(c1)[C@H]1[C@H](CO2)[C@H](c2ccccc2)[C@]2(C)C(=O)Nc3cc(F)c(F)cc3C(=O)N12 | inconclusive: 10 µM [inhibitor, partial curve, poor fit]
CCOc1cc(/C=N/Nc2cc(C)nc3ccc(C)cc23)ccc1O | active: 10 µM
Cc1ccc2[nH]c(=O)c(C(c3nnnn3CC3CCCO3)N3CCOCC3)cc2c1 (centres undefined) | inactive
CCCc1cc(N2CCOCC2)n2ncc(-c3ccccc3)c2n1 | inconclusive: 17.8 µM [inhibitor, partial curve]
CN1CCCN(C(=O)C2CCC(C(=O)N3CCCN(C)CC3)CC2)CC1 (centres undefined) | inactive
Cn1ncc(Cl)c1C(=O)NCc1cc(C(C)(C)C)n[nH]1 | inactive
Cc1cc(C)cc(N(CC(=O)NC2CCCCC2)C(=O)c2ccc(C)s2)c1 | active: 11.2 µM
COc1cc2c(cc1OC)CN(C(=O)CCCOc1ccc(Cl)cc1Cl)CC2 | inconclusive: 10 µM [inhibitor, partial curve]
CCn1c2ccccc2c2cc(/C=N/NC(=O)c3ccc(O)cc3)ccc21 | active: 17.8 µM
Cc1cccn2c(/C=N/OCc3ccc(F)cc3)c(-c3ccc(Cl)cc3)nc12 | inconclusive: 7.94 µM [inhibitor, partial curve]
Nc1cccn2c(-c3ccc(Cl)cc3)cnc12 | inconclusive: 31.6 µM [inhibitor, single point]
COc1ccc(-c2c3c(nc4sc(C(=O)Nc5cc(C)on5)c(N)c24)CCC3)cc1 | inconclusive: 11.2 µM [inhibitor, partial curve]
N=c1n(CCO)c2ccccc2n1CCOc1ccc(Cl)cc1Cl | inconclusive: 31.6 µM [inhibitor, single point]
COc1ccc(C(=O)NC2CC2)cc1OC1CCN(Cc2ccc(F)cc2Cl)CC1 | inconclusive: 25.1 µM [inhibitor, single point]
Cc1cc(C)c(C)c(S(=O)(=O)N2CCNCC2)c1C | inactive
O=C(CCCN1C(=O)/C(=C\c2cccs2)SC1=S)Nc1ccc(O)cc1 | inconclusive: 35.5 µM [inhibitor, single point]
O=C1CCC(C(=O)N2CCN(c3ccccc3Cl)CC2)CN1CC1CCCCC1 (centres undefined) | inconclusive: 10 µM [inhibitor, single point]
CCN1CCN(c2cc(C)c3cc(NC(=S)N4CCN(c5ccc(F)cc5)CC4)ccc3n2)CC1 | inconclusive: 5.62 µM [inhibitor, single point]
CC(C)CN=c1cc(-c2ccccc2)oc2ccc(Cl)cc12 | inconclusive: 12.6 µM [inhibitor, partial curve]
CCCCNc1c(-c2ccc(SC(C)CC)cc2)nc2cnccn12 (centres undefined) | inconclusive: 10 µM [inhibitor, partial curve]
CC(C(O)c1ccc(O)cc1)N1CCC(Cc2ccccc2)CC1 (centres undefined) | inactive and inconclusive: 11.2 µM [inhibitor, partial curve] and inconclusive: 31.6 µM [inhibitor, single point]
Cc1sc(/C=C2\C(=O)ON=C2c2ccccc2)cc1Br | inactive

Reference: PubChem BioAssay AID651820 (National Center for Advancing Translational Sciences (NCATS), 2012)
